In ChEMBL document CHEMBL1157539, “Thousands of chemical starting points for antimalarial lead identification” (Nature, 2010):
Whole data set: some 13,000 compounds, median “IFI” near 4, cut for the highest 2% near 17. This is one part of the list.

Assay: GSK_TCMDC: Inhibition Frequency Index (IFI). The number of non-kinase HTS assays where a compound showed > 50 % inhibition, expressed as a percentage of the number of such assays in which the compound was tested (-0 is zero)
Type: functional
For `Cn1cc(CN2CCC(OC(c3ccccc3)c3ccc(Cl)cc3)CC2)cn1` (configuration not stated), the IFI was 4.9%.
Compound `COc1ccc(NC(=O)c2ccc3cc4ccccc4cc3c2)cc1N1CCN(C)CC1` has an IFI of 11.2%.
For `c1cncc(CCNCc2cccc(-c3csc(-c4nc5ccccc5[nH]4)c3)c2)c1`, the IFI was 2.33%.
With `CC(=O)c1c(Nc2c(C)cc(C)cc2C)oc(C)cc1=O` the IFI was 1.37%.
In the case of `Cc1ccc(NC(=O)Nc2ccc(Cl)cc2)cc1-c1ccc(C(=O)Nc2ccncc2)cc1`, the IFI is reported as 21.1%.
`NC1CCN(Cc2cccc(-c3ccc(-c4nc5ccccc5[nH]4)cc3)c2)C1` (configuration not stated) gave an IFI of 2.82%.
For `CO/C(=C\C=C\c1cc2cc(Cl)c(Cl)cc2[nH]1)C(=O)NCCN1CCCCC1`, the IFI was 2.94%.
For `NCC1CCCN1Cc1ccc(-c2ccc(-c3nc4cc(C(F)(F)F)ccc4[nH]3)cc2)cc1` (configuration not stated), the IFI was 9.9%.
For `O=C(Nc1ccc(F)cc1)c1nc2ccccc2nc1Cl`, the IFI was 2.38%.
`O=c1ccc2ccc(F)cc2n1CCN1CCC(NCc2ccc(-c3ccccn3)s2)CC1` showed an IFI of 3.45%.
With `OC(c1ccccc1)C1CN(CCc2ccccc2)CCC1(O)c1ccccc1` (configuration not stated) the IFI was 1.61%.
For `Cc1cccc(OC(C)C(=O)Nc2cc(C(F)(F)F)ccc2N2CCOCC2)c1` (configuration not stated), the IFI was 3.03%.
`CS(=O)(=O)N1CC2(CCN(CCC(NC(=O)/C=C/c3ccccc3)c3ccc(Cl)c(Cl)c3)CC2)c2ccccc21` (configuration not stated) showed an IFI of 4.17%.
`CC(C)C[C@H](NC(=O)[C@H](Cc1ccccc1)NC(=O)CCN1C(=O)COc2ccc(C(=O)O)cc21)C(=O)NC(CC1CCCCC1)C(O)CC(=O)NCCCn1ccnc1` (some centres not stated) gave an IFI of -0%.
`CS(=O)(=O)Nc1cccc(-c2cnc3[nH]cc(-c4cccc(CN)c4)c3c2)c1` gave an IFI of 10.9%.
Compound `COc1cc(Nc2nccc(N3CCC(NC(=O)Nc4ccc5c(c4)OCO5)C3)n2)cc(OC)c1OC` (configuration not stated) has an IFI of 3.08%.
In the case of `CCN(CC)Cc1cc(Nc2c3ccc(Cl)cc3nc3cccc(OC)c23)ccc1O`, the IFI is reported as 12.2%.
With `CC(C)N1CCC(N(Cc2ccc(-c3ccc(C(F)(F)F)cc3)cc2)C(=O)Cn2c(CCc3cccc(F)c3F)cc(=O)c3c2CCC3)CC1` the IFI was 5.71%.
With `COc1ccc2nccc([C@@H](O)CN3CCC(NC(=O)/C=C/c4ccc(Cl)c(C(F)(F)F)c4)CC3)c2c1` the IFI was 1.49%.
`Clc1ccccc1OCc1ccccn1` showed an IFI of -0%.
Compound `COc1c(C2CCN(CCCCNC(=O)c3ccc(-c4ccc(C(F)(F)F)cc4)c(C(=O)OC(C)C)c3)CC2)ccc2c1CCCC2` has an IFI of 7.27%.
For `Cc1[nH]c(C)c(-c2ccc(OCCn3cnc(Cl)c3Cl)cc2)c(=O)c1Br`, the IFI was 1.89%.
Compound `CN1CCCC1CCNCc1ccc(-c2ccc(CNCCc3ccccc3)cn2)cc1` (configuration not stated) has an IFI of 4.76%.
Compound `Nc1nc(O)c2c(n1)CCc1c(Br)cccc1-2` has an IFI of 2.31%.
Work on `CNCCNCc1ccc(-c2ccc(-c3nc4cc(F)ccc4[nH]3)cc2)cc1` yielded an IFI of 13.9%.
`O=C(Nc1ccc(OC2CCN(Cc3ccccc3)CC2)c(Cl)c1)c1ccco1` gave an IFI of 3.28%.
For `CCCCNC(=O)[C@H](CC1CCCCC1)NC(=O)c1ccc(O)c(-c2ccc(OC)cc2)c1`, the IFI was 2.1%.
For `CN(C)Cc1ccc2nc(-c3cccc(Cc4cc(Cl)ccc4OCc4ccc(Cl)cc4F)n3)[nH]c2c1`, the IFI was 17.1%.
Compound `Cc1ccccc1Cn1ccc2c3c(N)nc(N)nc3ccc21` has an IFI of 4.72%.
In the case of `O=[N+]([O-])c1cc2c(cc1C=NNc1nc(=Nc3ccccc3)[nH]c(=Nc3ccccc3)[nH]1)OCO2`, the IFI is reported as -0%.
For `COc1ccc(NC(=O)[C@H](Cc2ccccc2)Nc2cc(C)nc(NCCc3ccccc3OC)n2)cc1`, the IFI was 10.3%.
Work on `CS(=O)(=O)NCCCNCc1ccc(-c2ccc(-c3nc4cc(C(F)(F)F)ccc4[nH]3)cc2)cc1` yielded an IFI of 5.94%.
Work on `Cc1ccc(C)c(CN2CCC(CNC(=O)c3cc4ccc5cccnc5c4[nH]3)CC2)c1` yielded an IFI of 14.3%.
`Cc1cc(N[C@@H](CC(C)C)C(=O)Nc2ccccc2)nc(NCC2CCCCC2)n1` showed an IFI of 16.7%.
`O=C(Nc1ccc(-c2csc(-c3nc4ccccc4[nH]3)c2)cc1)Nc1ccsc1` gave an IFI of 7%.
For `CCCC(=O)NC(c1cccs1)c1cc(Cl)c2cccnc2c1O` (configuration not stated), the IFI was 5.11%.
Work on `Cc1nc(Nc2ccc(F)cc2)nc(N2CCc3ccccc3C2C)c1CO` (configuration not stated) yielded an IFI of 3.52%.
With `COc1cc2nc(N(C)CC3COc4ccccc4O3)nc(N)c2cc1OC` (configuration not stated) the IFI was 6.08%.
`COc1cc(-n2cnc3cc(-c4ccc([N+](=O)[O-])cc4)sc3c2=O)ccc1OCCN1CCCC1` gave an IFI of 7.3%.
`CCOC(=O)C(C(C)=O)C(c1ccccc1)C(C(C)=O)C(=O)OCC` (configuration not stated) gave an IFI of -0%.
Compound `O=C(Nc1ccc(-c2oc(C(=O)NCCc3cccc(Cl)c3)cc2-c2ccncc2)cc1)Nc1cccc(Cl)c1` has an IFI of 2.78%.
For `N#Cc1ccc2[nH]cc(CN3CCC4(CC3)CN(CCNCc3ccccc3)C(=O)CO4)c2c1`, the IFI was 0.85%.
Work on `COc1ccccc1C1CC(c2ccccc2)=NN1C(=O)c1ccccc1` (configuration not stated) yielded an IFI of 2.07%.
`COc1ccc(CCn2c(=N)c(C(=O)NCc3cccnc3)cc3c(=O)n4ccccc4nc32)cc1` gave an IFI of 0.87%.
Work on `CC1CC(C)CN(S(=O)(=O)c2cc(C(=O)Nc3cccc([N+](=O)[O-])c3)ccc2Br)C1` (configuration not stated) yielded an IFI of 2.38%.
With `COc1ccc(NC(=O)CCNc2ccnc(NCCc3ccc(F)cc3)n2)cc1` the IFI was 4.65%.
For `CCOC(=O)c1cc2c(CCN3C(=O)c4ccccc4C3=O)cn(C)c2cc1-c1ccncc1`, the IFI was 30.4%.
Compound `Cc1[nH]c(C)c(-c2ccc(CCc3ccc(N)cc3)cc2)c(=O)c1Cl` has an IFI of 1.89%.
In the case of `CCN1CCC(N(Cc2ccc(-c3ccc(C(F)(F)F)cc3)cc2)C(=O)Cn2c(SCc3ccc(F)cc3)nc(=O)c3c2CCC3)CC1`, the IFI is reported as 12.5%.
`Cc1ccccc1C1CCN(C2CCC(NC(=O)/C=C/c3cccc(Cl)c3Cl)CC2)CC1` (configuration not stated) showed an IFI of 11.5%.
With `CCN(CC)CCN(Cc1ccc(-c2ccc(C(F)(F)F)cc2)cc1)C(=O)Cn1c(CCc2cccc(F)c2F)nc(=O)c2ccc(F)cc21` the IFI was 3.03%.
With `COc1cc2ncnc(Nc3ccc4nc(Cc5ccccc5)[nH]c4c3)c2cc1OC` the IFI was 2.21%.
`CN(C)C(CNC(=O)c1cc(-c2ccncc2)c(-c2cc3ccccc3[nH]2)o1)c1ccccc1` (configuration not stated) gave an IFI of 7.46%.
For `CO/C(=C\C=C\c1cc2cc(Cl)c(Cl)cc2[nH]1)C(=O)NCCCNCCN(C)c1ccccc1`, the IFI was 13%.
`c1ccc([C@H]2CN3CCSC3=N2)cc1` gave an IFI of -0%.
`CC(C)(C)c1ccc(CN2CCC(NC(=O)c3ccc(-c4cccc(F)c4)s3)CC2)cc1` showed an IFI of 12.5%.
Work on `C(=N\Nc1nccc2sc(-c3cccnc3)cc12)/c1cccnc1` yielded an IFI of 4.26%.
